Screen size: about 52,000 compounds; about 4,300 (8.3%) were called active. Rule as the data show it: active = survival mostly below about 52% (no sharp cut-off); inactive = mostly above about 56%. Some of the results follow.
Each compound was assayed on DeltatarO mutant (assay: S. aureus survival, RN4220 and DeltatarO strains – OD600, teichoic acid synthesis inhibitors, primary screen (AID 463173)). Settings: S. aureus RN4220 wild type/DeltatarO growth, OD600, 18 h, hits give low values, screened at 18.75 µg/mL (by protocol).

Structure (SMILES)	survival
Cc1cc(C)cc(N2C(=O)CSC23C(=O)N(Cc2c(F)cccc2Cl)c2ccccc23)c1 (configuration not stated)	inactive: 90%
CCOC(=O)c1cc(-c2ccccc2)n(CCC(=O)Nc2ccccc2CC)c1C	inactive: 69%
Cc1cc(C)c(OCC(=O)O)c(Cl)c1	inactive: 99%
COc1ccc(C2CC(=O)N(Cc3ccc(C)cc3)c3c2c(C)nn3-c2nc(C)cc(C)n2)c(OC)c1 (configuration not stated)	inactive: 103%
Cc1cccc2nc(-c3ccccn3)c(Nc3ccc(F)cc3)n12	active: -9%
O=C(Nc1ccc(F)c(Cl)c1)Nc1c[nH]c(=O)[nH]c1=O	inactive: 78%
O=C(CSc1nc(=O)n(CCN2CCOCC2)c2c1CCC2)Nc1ccc(Cl)c(Cl)c1	inactive: 74%
O=C(CN1CCC(n2nnc3cc(C(F)(F)F)ccc32)CC1)N1CCc2ccccc21	inactive: 93%
CC(CNC(=O)c1cnn(-c2ccc(F)cc2)c1-n1cccc1)c1ccccc1 (configuration not stated)	inactive: 87%
COCCN(C(=O)c1ccco1)c1nnc(-c2ccc(F)cc2)s1	inactive: 58%
CC(=O)Nc1ccccc1-c1nc2ccccc2n(CC(=O)Nc2cccc(C)c2C)c1=O	inactive: 117%
O=C(Nc1nccs1)c1ccc(N2C(=O)CCC2=O)cc1	inactive: 93%
Cc1ccc2nc(SCc3nc(-c4ccc(Cl)cc4)no3)[nH]c2c1	active: 28%
CC1=C(C(=O)Nc2cccnc2)C(c2ccc(C)cc2)n2nc(SCc3ccccc3F)nc2N1 (configuration not stated)	inactive: 62%
COc1cc2c(cc1OC)n(CC(=O)c1cc(C)ccc1C)c(=O)n1nc(CCn3nc(C)cc3C)nc21	inactive: 81%
Cc1cc(Nc2ccc(F)cc2F)nc(-n2nc(C)cc2C)n1	inactive: 80%
CCc1cc2c(cc3c(=O)n(CCCC(=O)NCc4cccc(Br)c4)ncn32)s1	inactive: 79%
Cc1ccc(NC(=O)C(CC(C)C)N2Cc3ccccc3C2=O)cc1F (configuration not stated)	active: -5%
CNS(=O)(=O)c1cn(CC(=O)N2CCN(c3ccc(C(C)=O)cc3)CC2)cc1S(=O)(=O)NC	active: 37%

Structure (SMILES)	survival
CCCCC12CN3CC(C)(CN(C1)C3c1c[nH]c3ccccc13)C2=O (configuration not stated)	inactive: 76%
CCCCC(CC)CNC(=O)Cc1ccc(-n2c(=O)[nH]c3ccccc3c2=O)cc1 (configuration not stated)	inactive: 85%
Cc1cccc(CSc2nc3c([nH]c4ccccc43)c(=O)n2C)c1	inactive: 92%
COc1cc(OC)c(OC)cc1CNCc1ccco1	inactive: 114%
CC(=O)N1c2ccc(S(=O)(=O)Nc3ccc(C)c(Cl)c3)cc2CC1C (configuration not stated)	inactive: 86%
COc1ccc(N2CCN(S(=O)(=O)c3ccc(-c4coc(C)n4)cc3)CC2)cc1	inactive: 101%
C/C(CC(O)c1ccc2ccccc2n1)=N/O (configuration not stated)	inactive: 54%
CCOc1ccc(CC(=O)Nc2c(C(=O)c3ccccc3)oc3ccc(Cl)cc23)cc1OCC	inactive: 48%
CC(C)CCNc1nc(Nc2ccccc2)c2cnn(C)c2n1	inactive: 81%
O=C(Cc1ccc(Cl)cc1)NCCc1csc2nc(-c3ccccc3F)nn12	inactive: 84%
Cc1cc(F)ccc1Nc1nc2ccc(Cl)cc2n2cnnc12	inactive: 90%
CCOC(=O)c1ccc(-n2c(CCC(=O)O)ccc2-c2ccccc2)cc1O	active: 43%
Cc1nnc(NC(=O)CSc2nccn2Cc2ccccc2)s1	inactive: 74%
CSCCC(NS(=O)(=O)c1ccc2c(c1)oc(=O)n2C)C(=O)NCc1ccc(Cl)cc1 (configuration not stated)	inactive: 92%
CCCn1c(N2CCN(CC(=O)NCc3cccs3)CC2)nc2ccccc21	inactive: 99%
Cc1ccc(C)c(NC(=O)c2nc(S(=O)(=O)Cc3ccc(F)cc3)ncc2Cl)c1	inactive: 99%
CCc1ccccc1S(=O)(=O)Cc1ccc(C(=O)NCCc2ccc(Cl)cc2)o1	inactive: 76%
O=C(Nc1cc(-c2cccc(Cl)c2)nn1-c1ccccc1)c1ccccc1F	inactive: 83%
CCOC(=O)c1cccc(N(C(=O)Cn2nnc3ccccc32)C(C(=O)NCC2CCCO2)c2nc3ccccc3n2C)c1 (configuration not stated)	inactive: 66%

Structure (SMILES)	survival
CCS(=O)(=O)c1ncc(N(Cc2ccccc2)Cc2ccco2)c(C(=O)Nc2ccccc2C)n1	active: 45%
CNc1ccc(-c2nc(-c3ccncc3)no2)cc1[N+](=O)[O-]	inactive: 108%
COC(=O)c1ccccc1NC(=O)CSc1nc2ccccc2nc1Cc1ccc(F)cc1	inactive: 67%
O=C(NC1CCCCC1)c1ccc2c(c1)N(Cc1cccc(Cl)c1)C(=O)c1ccccc1S2(=O)=O	inactive: 69%
CC(CC(=O)Nc1ccc(F)cc1)S(=O)(=O)c1cc2c3c(c1)CCN3C(=O)CC2 (configuration not stated)	inactive: 71%
CCOC(=O)C1=C(CN2c3ccccc3CC2C)NC(=O)NC1c1ccccc1 (configuration not stated)	inactive: 96%
COc1ccc(N2CCN(C(=O)C(CC(C)C)NS(=O)(=O)c3ccc4nc(C)sc4c3)CC2)cc1 (configuration not stated)	inactive: 77%
O=C(Cn1nnc2ccccc2c1=O)NC1CCCCC1	inactive: 89%
Cc1cccc(NC(=O)Cn2c(=O)n(CC3CCC(C(=O)NCCc4ccccc4)CC3)c(=O)c3ccccc32)c1 (configuration not stated)	inactive: 74%
Fc1ccc(-c2cc(-c3ccc(F)cc3)c3c(n2)-c2cc(F)ccc2OC3)cc1	inactive: 89%
Fc1ccc(Nc2nc(-c3cccc(Cl)c3)c3c(n2)-c2ccccc2OC3)c(F)c1	inactive: 95%
CCOC(=O)c1c(NC(=O)c2cc(-c3cccc(Cl)c3)on2)sc(C)c1C	active: 56%
CCc1ccc(NC(=O)CSc2nc(-c3ccc(C)cc3)nc3c2Cc2c(CO)cnc(C)c2O3)cc1	inactive: 112%
CCOc1ccc2nc(N3CCCC(C(=O)Nc4ccccc4CC)C3)sc2c1 (configuration not stated)	inactive: 95%
c1ccc(Sc2ncnc3c2oc2ccccc23)cc1	inactive: 60%
Cc1ccccc1-c1nnc(C2CCC(c3ccccc3)CC2)o1 (configuration not stated)	inactive: 92%
CC1Oc2ccccc2N(CC(=O)c2ccccc2)C1=O (configuration not stated)	inactive: 96%
COc1ccc(CNC(=O)CCc2c(C)nc3cc(-c4ccc(OC)cc4OC)nn3c2C)cc1	inactive: 121%
CCOc1ccc(C(=O)Nc2ccc(OCc3cc(=O)n4cccc(C)c4n3)cc2)cc1	inactive: 55%

Reference: PubChem BioAssay AID463173 (ICCB-Longwood Screening Facility, Harvard Medical School, 2010)
